A number of entries come with more than one value. The list is limited to them. The source may hold further records. The values listed for one entry are repeats in other runs, samples, wells, individuals or studies. Counts like (3×) give the number of equal values in this list.

This passage reports viability, T/C results from PubChem BioAssay AID1963865 (Molecular Pharmacology Branch, DTP, NCI, 2024).

The subject of the assay is KRAS PDC multicell spheroid viability. As to the kind of experiment: Anticancer human tumor 825966-067-R-J1-PDC patient-derived colon carcinoma cell line growth inhibition [KRAS2]. Conditions: stronger effect = lower value. From the text:
Multicellular complex tumor spheroid response to RAS pathway inhibitors in combination with a targeted agents in patient-derived cell lines with oncogenic KRAS variants from multiple cancer types
A high-throughput screen of multi-cell type tumor spheroids was designed to identify active combinations of targeted small molecules and KRAS pathway inhibitors. Complex spheroids include a stromal component modeled by human endothelial cells (HUVEC) and fibroblasts modeled by human mesenchymal stem cells (MSCs). The concentration ranges selected for each drug and investigational agent were based upon clinically achievable concentrations if the clinical Cmax of the agent was known.
Compounds. The drugs and investigational agents: BI-3406 (NSC825286), BAY-293 (NSC824723), batoprotafib (TNO155; NSC825523), sotorasib (AMG 510; NSC818433), MRTX1257 (NSC819558), elimusertib (BAY 1895344; NSC800525), molibresib (GSK525762; NSC774829), temuterkib (LY3214996; NSC803410), venetoclax (NSC766270), alisertib (NSC759677), olaparib (NSC753686), talazoparib (NSC767125), erdafitinib (NSC781556), ipatasertib (NSC767898), cabozantinib (NSC761068), nintedanib (NSC756659), abemaciclib (NSC768073), docetaxel (NSC628503), trametinib (NSC758246), and sapanisertib (NSC764658) were obtained from the National Cancer Institute (NCI) Developmental Therapeutics Program Chemical Repository. The FDA-approved anticancer drug set is available from the Developmental Therapeutics Program. […] The stock solutions were prepared in dimethyl sulfoxide (DMSO, Sigma-Aldrich, St. Louis, MO, cat. D2650) at 800-fold the tested concentration and stored at -70 degrees C prior to their use. All drugs and investigational agents were tested over a range starting from a high concentration at or near the clinical Cmax and decreasing in half-log increments. If the clinical Cmax for an agent had not been determined, the highest concentration tested was 10 microM.
Cell Culture. All cells were maintained in an incubator at 37 degrees C and 5% CO2 with 95% humidity. The PDC lines were cultured according to standard operating procedures established by the NCI PDMR (https://pdmr.cancer.gov/sops/default.htm). Briefly, all PDCs were thawed and cultured in Matrigel-coated flasks prepared with a working solution of 1X Ham's F-12 nutrient mix, without supplementation (Invitrogen, Waltham, MA, cat. 11765054), 100 U/mL penicillin-streptomycin (Invitrogen, cat. 15140122), and 2.5% Matrigel (Corning Inc., Corning, NY, cat. 354248) for the first three passages. All PDCs were cultured in complete DMEM/F-12 media containing advanced DMEM/F-12 (Invitrogen, cat. 12634028), 4.9% defined fetal bovine serum, heat inactivated (HyClone Laboratories Inc., Logan, UT, cat. SH30070.03HI), 389 ng/mL hydrocortisone (Sigma-Aldrich, cat. H4001), 9.7 ng/mL human EGF recombinant protein (Invitrogen, cat. PHG0313), 23.4 microg/mL adenine (Sigma-Aldrich, cat. A2786), 97.3 U/mL penicillin-streptomycin (Invitrogen, cat. 15140122), 1.9 mM L-glutamine (Invitrogen, cat. 25030081), and 9.7 microM Y-27632 dihydrochloride (Tocris Bioscience, Bristol, United Kingdom, cat. 1254). The PDCs were cultured in complete DMEM/F12 media without 9.7 microM Y-27632 dihydrochloride for at least two passages prior to the screen. The established cell line HOP-62 was cultured in RPMI 1640 medium, HEPES (Invitrogen, cat. 22400105) with 10% defined fetal bovine serum (HyClone Laboratories Inc., cat. SH30070.03) and 2 mM L-glutamine (Invitrogen, cat. 25030081). The pooled donor HUVEC were cultured in endothelial cell growth medium 2 (PromoCell, Heidelberg, Germany, cat. C-22011) and the hMSC were cultured in mesenchymal stem cell growth medium 2 (PromoCell, cat. C-28009). For all experiments, HUVEC and hMSC were used at passages </=5, while the malignant cell lines were used at passages </=15. […]
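Note: spheroids exposed to compounds for 7 days; 100% = DMSO vehicle control viability.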

`CC(C)n1nc(-c2ccc3oc(N)nc3c2)c2c(N)ncnc21`: the viability, T/C is 111, 109, 140, 107, 98.6% (compound alone 0.000316 µM); 120, 93.7, 134, 108, 121% (compound alone 0.001 µM); 134 (2×), 142, 112, 149% (compound alone 0.01 µM); 118, 137, 141, 126, 145% (compound alone 0.0316 µM); 131, 121, 161, 133, 153% (compound alone 0.1 µM).

As for `Cn1ncnc1[C@H]1c2n[nH]c(=O)c3cc(F)cc(c23)N[C@@H]1c1ccc(F)cc1`, the viability, T/C is, setting by setting: (compound alone 0.000316 µM) 76.9, 110, 87.5, 111, 74.8%; (compound alone 0.001 µM) 78.1, 106, 103, 71.9, 109%; (compound alone 0.00316 µM) 87.2, 85.4, 61.2, 89, 94.9%; (compound alone 0.0316 µM) 86.4, 74.4, 56, 90.7, 65.1%; (compound alone 0.1 µM) 85.6, 67.2, 54.4, 95.5, 64.9%.

On to `CC(C)NCC(C(=O)N1CCN(c2ncnc3c2C(C)CC3O)CC1)c1ccc(Cl)cc1` (stereo not drawn), for which the viability, T/C (compound alone 0.0316 µM) was 106, 109, 73.1, 81.3, 94.8%; the viability, T/C (compound alone 0.1 µM) was 97.5, 109, 77.1, 92.1, 72.8%; the viability, T/C (compound alone 1 µM) is on record as 90.3, 94.2, 72.6, 128, 103%.
